The source of these data is patent US20160052993A1 (ELEVEN BIOTHERAPEUTICS, published 2016).

The target of the test is single-chain human FcRn, FLAG/His-tagged (human, UniProt P61769 part only; P55899 part only). As to the kind of experiment: SPR, schFcRn immobilised; by the numbers, the ratio of KD at pH 7.4 to KD at pH 6.0.

B1: HSA13 (V418M, T420A, E505G, V547A) (other)
chain: not shown
notes: mature; used for the co-crystal structure (PDB 4K71)
With B1, the Fold increase is 930 fold.
